# Experimental data published in the supplement of paper PMC4604168 (melanoma cell lines).
# The list shows a part of the results. Single values are uncertain, as repeats are few or missing.
# How the values were obtained:
# Assay in all cases: cell count relative to DMSO control; melanoma cells; higher = more viable cells
# Settings in all cases: library dose: low library concentration; 72 h
# [1] = tested on: MZ2-MEL
# [2] = tested on: MeWo
# [3] = tested on: RPMI7951
# [4] = tested on: RVH-421
# [5] = tested on: SkMel28
# [6] = tested on: SkMel2
# [7] = tested on: SkMel30
# [8] = tested on: SkMel5
# [9] = tested on: UACC257
# [10] = tested on: UACC62
# 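Note: cell number obtained by counting DAPI-stained nuclei in high-throughput microscope images with image analysis software, screen run in 1,536-well plates.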
Compound,cell count [1] [%],cell count [2] [%],cell count [3] [%],cell count [4] [%],cell count [5] [%],cell count [6] [%],cell count [7] [%],cell count [8] [%],cell count [9] [%],cell count [10] [%]
"C=CCn1c(=O)c2cnc(Nc3ccc(N4CCN(C)CC4)cc3)nc2n1-c1cccc(C(C)(C)O)n1 + NCC(=O)Nc1ccc(-n2nc(C(F)(F)F)cc2-c2ccc3c(ccc4ccccc43)c2)cc1 [OSU03012] (first compound 0.02 µM, partner dose 1 µM)",97.3,55.2,90.3,75.8,68.4,64.8,40.9,93,85.2,82.1
"Cc1nc(Nc2ncc(C(=O)Nc3c(C)cccc3Cl)s2)cc(N2CCN(CCO)CC2)n1 [dasatanib] + C=CCn1c(=O)c2cnc(Nc3ccc(N4CCN(C)CC4)cc3)nc2n1-c1cccc(C(C)(C)O)n1 [MK1775] (first compound 0.004 µM, partner dose 0.02 µM)",73.5,84.7,71.1,57.1,63.7,89.3,84.6,80.2,68.2,84.7
"C[C@]1(c2nc3c(C(N)=O)cccc3[nH]2)CCCN1 [Veliparib] + C=CCn1c(=O)c2cnc(Nc3ccc(N4CCN(C)CC4)cc3)nc2n1-c1cccc(C(C)(C)O)n1 [MK1775] (first compound 1.4 µM, partner dose 0.02 µM)",95.8,90.4,101,72.9,79,88.7,94.4,81.6,66.9,69.7
"C=CCn1c(=O)c2cnc(Nc3ccc(N4CCN(C)CC4)cc3)nc2n1-c1cccc(C(C)(C)O)n1 + Cc1ccc(NC(=O)c2cccc(N(C)C)c2)cc1NC(=O)c1ccc(O)cc1 [ZM336372] (first compound 0.02 µM, partner dose 2 µM)",90.9,97.3,97.4,98.5,91.2,94.9,79.9,105,69.7,68.6
"Cc1nc(Nc2ncc(C(=O)Nc3c(C)cccc3Cl)s2)cc(N2CCN(CCO)CC2)n1 [dasatanib] + COc1cc(Nc2ncc(F)c(Nc3ccc4c(n3)NC(=O)C(C)(C)O4)n2)cc(OC)c1OC [Tamatinib] (first compound 0.004 µM, partner dose 0.4 µM)",62.5,79.2,63.8,76,61.2,86.1,84.9,80.4,50,70.8
"Cc1nc(Nc2ncc(C(=O)Nc3c(C)cccc3Cl)s2)cc(N2CCN(CCO)CC2)n1 [dasatanib] + Cn1cncc1[C@@](N)(c1ccc(Cl)cc1)c1ccc2c(c1)c(-c1cccc(Cl)c1)cc(=O)n2C [tipifarnib] (first compound 0.004 µM, partner dose 0.01 µM)",83.4,80.1,64.4,64.1,69.4,84.2,90.6,90.8,61.8,60.3
"CO[C@@H]1[C@H](N(C)C(=O)c2ccccc2)C[C@H]2O[C@]1(C)n1c3ccccc3c3c4c(c5c6ccccc6n2c5c31)C(=O)NC4 [Midostaurin] + O=C(Nc1cccc(Cl)c1)Nc1ncc(CCNc2ncnc3ccsc23)s1 [SNS314] (first compound 0.08 µM, partner dose 0.0008 µM)",87.4,81.9,65.1,86,97.7,79.3,106,96.4,74.4,70.7
"CO[C@@H]1[C@H](N(C)C(=O)c2ccccc2)C[C@H]2O[C@]1(C)n1c3ccccc3c3c4c(c5c6ccccc6n2c5c31)C(=O)NC4 [Midostaurin] + C[C@@H]1CCN(C(=O)CC#N)C[C@@H]1N(C)c1ncnc2[nH]ccc12 [CP690550] (first compound 0.08 µM, partner dose 1 µM)",95.1,81,72.4,78.1,102,73.4,96.8,85.3,86.9,90.3
"C[C@]1(c2nc3c(C(N)=O)cccc3[nH]2)CCCN1 [Veliparib] + O=C(Nc1cccc(Cl)c1)Nc1ncc(CCNc2ncnc3ccsc23)s1 [SNS314] (first compound 1.4 µM, partner dose 0.0008 µM)",96.2,96.5,105,97.8,88.3,93.4,106,98.2,80,93
"Cc1nc(Nc2ncc(C(=O)Nc3c(C)cccc3Cl)s2)cc(N2CCN(CCO)CC2)n1 [dasatanib] + CC1(C)NC(=O)N(c2ccc([N+](=O)[O-])c(C(F)(F)F)c2)C1=O [nilutamide] (first compound 0.004 µM, partner dose 1 µM)",84.5,88,84.8,72.7,76.2,91.8,90.4,88,85.4,67.6
"Cc1nc(Nc2ncc(C(=O)Nc3c(C)cccc3Cl)s2)cc(N2CCN(CCO)CC2)n1 [dasatanib] + O=C(O)c1ccc(-c2c[nH]c3ncc(-c4ccccc4)cc23)cc1C1CCCC1 [GSK650394] (first compound 0.004 µM, partner dose 0.16 µM)",71.9,85.4,73.3,87.7,78.1,98.7,92.1,96.6,54.1,73.4
"C=CCn1c(=O)c2cnc(Nc3ccc(N4CCN(C)CC4)cc3)nc2n1-c1cccc(C(C)(C)O)n1 + COc1cc2c(Oc3ccc4[nH]c(C)cc4c3F)ncnc2cc1OCCCN1CCCC1 [cediranib] (first compound 0.02 µM, partner dose 0.4 µM)",97.3,92.3,89.7,96.2,84,94.7,86.3,84.6,89.2,94.3
"C=CCn1c(=O)c2cnc(Nc3ccc(N4CCN(C)CC4)cc3)nc2n1-c1cccc(C(C)(C)O)n1 + NC(=O)Nc1cc(-c2cccc(F)c2)sc1C(=O)N[C@H]1CCCNC1 [AZD7762] (first compound 0.02 µM, partner dose 0.02 µM)",113,76.5,54.4,101,82.8,93.5,62.3,95.6,110,69
"OCCn1cc(-c2cnc3nnn(Cc4ccc5ncccc5c4)c3n2)cn1 + NCC(=O)Nc1ccc(-n2nc(C(F)(F)F)cc2-c2ccc3c(ccc4ccccc43)c2)cc1 [OSU03012] (first compound 1 µM, partner dose 1 µM)",107,56.6,102,95.5,89.6,81.8,57.1,105,97.8,96.7
"C[C@]1(c2nc3c(C(N)=O)cccc3[nH]2)CCCN1 [Veliparib] + CN(NC(=O)CC(=O)NN(C)C(=S)c1ccccc1)C(=S)c1ccccc1 [STA4783] (first compound 1.4 µM, partner dose 0.006 µM)",96.3,95.3,88.8,81.1,88.9,93.2,67.8,98.6,88.7,70.8
"Cc1nc(Nc2ncc(C(=O)Nc3c(C)cccc3Cl)s2)cc(N2CCN(CCO)CC2)n1 [dasatanib] + Cc1ccc(NC(=O)c2cccc(N(C)C)c2)cc1NC(=O)c1ccc(O)cc1 [ZM336372] (first compound 0.004 µM, partner dose 2 µM)",61.4,93.6,70.5,87.4,77.7,112,95.4,97.6,91.9,101
"C[C@]1(c2nc3c(C(N)=O)cccc3[nH]2)CCCN1 [Veliparib] + C[C@@H]1CCN(C(=O)CC#N)C[C@@H]1N(C)c1ncnc2[nH]ccc12 [CP690550] (first compound 1.4 µM, partner dose 1 µM)",97.6,92.6,97.9,80.9,84.1,97,90.4,88.2,81.6,76.3
"Cc1nc(Nc2ncc(C(=O)Nc3c(C)cccc3Cl)s2)cc(N2CCN(CCO)CC2)n1 [dasatanib] + NCC(=O)Nc1ccc(-n2nc(C(F)(F)F)cc2-c2ccc3c(ccc4ccccc43)c2)cc1 [OSU03012] (first compound 0.004 µM, partner dose 1 µM)",71.9,64.8,62.9,94.1,64.8,54.1,74.4,85,77.8,76.2
"NC(=O)Nc1cc(-c2cccc(F)c2)sc1C(=O)N[C@H]1CCCNC1 + Cn1cncc1[C@@](N)(c1ccc(Cl)cc1)c1ccc2c(c1)c(-c1cccc(Cl)c1)cc(=O)n2C [tipifarnib] (first compound 0.02 µM, partner dose 0.01 µM)",104,102,81,101,111,91.1,87.9,101,106,81.9
"OCCn1cc(-c2cnc3nnn(Cc4ccc5ncccc5c4)c3n2)cn1 + C[C@@H]1CCN(C(=O)CC#N)C[C@@H]1N(C)c1ncnc2[nH]ccc12 [CP690550] (first compound 1 µM, partner dose 1 µM)",108,111,109,106,98,100,113,118,90.2,119
"NC(=O)Nc1cc(-c2cccc(F)c2)sc1C(=O)N[C@H]1CCCNC1 + CN(C)S(=O)(=O)c1ccc2c(c1)/C(=C/c1cc3c([nH]1)CCCC3)C(=O)N2 [SU6656] (first compound 0.02 µM, partner dose 0.4 µM)",105,86.9,99.9,95,95.6,93.8,105,94.4,103,86.4
